This is one part of the list.
What was measured:
Experiment in all cases: glycan array binding signal (z-score within array); higher = stronger binding
Conditions in all cases: glycan notation: IUPAC condensed, linker removed
[1] = target: Gal(b1-4)GlcNAc(b1-3)Gal(b1-4)GlcNAc(b1-3)[Gal(b1-4)GlcNAc(b1-3)Gal(b1-4)GlcNAc(b1-6)]GalNAc
Summary of the method: (§1)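 The binding signal is a Z-score computed within each array and averaged over linkers. Arrays of the same protein sequence at different concentrations or buffers were also averaged together. Data originate from 3228 arrays in the Consortium for Functional Glycomics database, kept only where the protein sequence was available.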

[2] = target: Gal(b1-4)GlcNAc(b1-3)Gal(b1-4)GlcNAc(b1-6)[Gal(b1-3)]GalNAc
Summary of the method: as §1

[3] = target: Gal(b1-4)GlcNAc(b1-3)Gal(b1-4)[Fuc(a1-3)]GlcNAc(b1-3)Gal(b1-4)[Fuc(a1-3)]GlcNAc
Summary of the method: as §1

[4] = target: Gal(b1-4)GlcNAc(b1-3)GalNAc
Summary of the method: as §1

[5] = target: Gal(b1-4)GlcNAc(b1-3)[Fuc(a1-3)GlcNAc(b1-6)]Gal(b1-4)Glc
Summary of the method: as §1

[6] = target: Gal(b1-4)GlcNAc(b1-3)[Gal(b1-4)GlcNAc(b1-6)]Gal(b1-4)GlcNAc
Summary of the method: as §1

[7] = target: Gal(b1-4)GlcNAc(b1-3)[GlcNAc(b1-6)]Gal(b1-4)GlcNAc
Summary of the method: as §1

[8] = target: Gal(b1-4)GlcNAc(b1-6)Gal(b1-4)GlcNAc
Summary of the method: as §1

[9] = target: Gal(b1-4)GlcNAc(b1-6)GalNAc
Summary of the method: as §1

[10] = target: Gal(b1-4)GlcNAc(b1-6)[Gal(b1-3)]GalNAc
Summary of the method: as §1

[11] = target: Gal(b1-4)GlcNAc(b1-6)[Gal(b1-4)GlcNAc(b1-3)]GalNAc
Summary of the method: as §1

Gal(b1-4)GlcNAc6P = target: Gal(b1-4)GlcNAc6P
Summary of the method: as §1

Gal(b1-6)Gal = target: Gal(b1-6)Gal
Summary of the method: as §1

Gal3S(b1-3)GalNAc = target: Gal3S(b1-3)GalNAc
Summary of the method: as §1

Gal3S(b1-3)GlcNAc = target: Gal3S(b1-3)GlcNAc
Summary of the method: as §1

[12] = target: Gal3S(b1-3)[Fuc(a1-4)]GlcNAc
Summary of the method: as §1

Gal3S(b1-4)Glc = target: Gal3S(b1-4)Glc
Summary of the method: as §1

Gal3S(b1-4)Glc6S = target: Gal3S(b1-4)Glc6S
Summary of the method: as §1

Gal3S(b1-4)GlcNAc = target: Gal3S(b1-4)GlcNAc
Summary of the method: as §1

[13] = target: Gal3S(b1-4)[Fuc(a1-3)]Glc6S
Summary of the method: as §1

[14] = target: Gal3S(b1-4)[Fuc(a1-3)]GlcNAc
Summary of the method: as §1

[15] = target: Gal3S(b1-4)[Fuc(a1-3)]GlcNAc6S
Summary of the method: as §1

Gal3S4S(b1-4)GlcNAc = target: Gal3S4S(b1-4)GlcNAc
Summary of the method: as §1

Gal3S6S(b1-4)GlcNAc = target: Gal3S6S(b1-4)GlcNAc
Summary of the method: as §1

Gal3S6S(b1-4)GlcNAc6S = target: Gal3S6S(b1-4)GlcNAc6S
Summary of the method: as §1

Gal4S(b1-4)GlcNAc = target: Gal4S(b1-4)GlcNAc
Summary of the method: as §1

Gal4S6S(b1-4)GlcNAc = target: Gal4S6S(b1-4)GlcNAc
Summary of the method: as §1

Gal6P(b1-4)GlcNAc = target: Gal6P(b1-4)GlcNAc
Summary of the method: as §1

Gal6S(b1-3)GlcNAc = target: Gal6S(b1-3)GlcNAc
Summary of the method: as §1

Gal6S(b1-3)GlcNAc6S = target: Gal6S(b1-3)GlcNAc6S
Summary of the method: as §1

Gal6S(b1-4)Glc = target: Gal6S(b1-4)Glc
Summary of the method: as §1

Gal6S(b1-4)Glc6S = target: Gal6S(b1-4)Glc6S
Summary of the method: as §1

Gal6S(b1-4)GlcNAc = target: Gal6S(b1-4)GlcNAc
Summary of the method: as §1

Gal6S(b1-4)GlcNAc6S = target: Gal6S(b1-4)GlcNAc6S
Summary of the method: as §1

GalNAc(a1-3)Gal = target: GalNAc(a1-3)Gal
Summary of the method: as §1

GalNAc(a1-3)GalNAc = target: GalNAc(a1-3)GalNAc
Summary of the method: as §1

[16] = target: GalNAc(a1-3)GalNAc(b1-3)Gal(a1-4)Gal(b1-4)Glc
Summary of the method: as §1

[17] = target: GalNAc(a1-3)GalNAc(b1-3)Gal(a1-4)Gal(b1-4)GlcNAc
Summary of the method: as §1

GalNAc(b1-3)Gal = target: GalNAc(b1-3)Gal
Summary of the method: as §1

[18] = target: GalNAc(b1-3)Gal(a1-4)Gal(b1-4)GlcNAc
Summary of the method: as §1

[19] = target: GalNAc(b1-3)Gal(a1-4)Gal(b1-4)GlcNAc(b1-3)Gal(b1-4)Glc
Summary of the method: as §1

[20] = target: GalNAc(b1-3)Gal(a1-6)Gal(b1-4)Glc
Summary of the method: as §1

GalNAc(b1-3)GalNAc = target: GalNAc(b1-3)GalNAc
Summary of the method: as §1

GalNAc(b1-3)GlcNAc = target: GalNAc(b1-3)GlcNAc
Summary of the method: as §1

GalNAc(b1-4)Gal(b1-4)Glc = target: GalNAc(b1-4)Gal(b1-4)Glc
Summary of the method: as §1

B1: CGL (Crenomytilus grayanus), H2FH31 (protein)
chain: MTTFLIKHKASGKFLHPYGGSSNPANNTKLVLHSDIHERMYFQFDVVDERWGYIKHVASGKIVHPYGGQANPPNETNMVLHQDRHDRALFAMDFFNDNIMHKGGKYIHPKGGSPNPPNNTETVIHGDKHAAMEFIFVSPKNKDKRVLVYA
Question: For B1, which “glycan array binding signal (z-score)” value [1] is on record?
Answer: 0.263

Question: And the “glycan array binding signal (z-score)” value [2]?
Answer: -0.149

Question: What about the “glycan array binding signal (z-score)” value [3] of the same binder?
Answer: 0.063

Question: And the “glycan array binding signal (z-score)” value [4]?
Answer: -0.073

Question: What about the “glycan array binding signal (z-score)” value [5] of the same binder?
Answer: -0.112

Question: What about the “glycan array binding signal (z-score)” value [6] of the same binder?
Answer: 2.53

Question: And the “glycan array binding signal (z-score)” value [7]?
Answer: 0.412

Question: What about the “glycan array binding signal (z-score)” value [8] of the same binder?
Answer: -0.019

Question: And the “glycan array binding signal (z-score)” value [9]?
Answer: 0.026

Question: What about the “glycan array binding signal (z-score)” value [10] of the same binder?
Answer: 0.099

Question: What about the “glycan array binding signal (z-score)” value [11] of the same binder?
Answer: 0.592

Question: What about the “glycan array binding signal (z-score)” value (Gal(b1-4)GlcNAc6P) of the same binder?
Answer: 0.118

Question: And the “glycan array binding signal (z-score)” value (Gal(b1-6)Gal)?
Answer: -0.324

Question: What about the “glycan array binding signal (z-score)” value (Gal3S(b1-3)GalNAc) of the same binder?
Answer: -0.242

Question: And the “glycan array binding signal (z-score)” value (Gal3S(b1-3)GlcNAc)?
Answer: -0.32

Question: And the “glycan array binding signal (z-score)” value [12]?
Answer: -0.33

Question: And the “glycan array binding signal (z-score)” value (Gal3S(b1-4)Glc)?
Answer: -0.326

Question: And the “glycan array binding signal (z-score)” value (Gal3S(b1-4)Glc6S)?
Answer: -0.298

Question: What about the “glycan array binding signal (z-score)” value (Gal3S(b1-4)GlcNAc) of the same binder?
Answer: -0.25

Question: What about the “glycan array binding signal (z-score)” value [13] of the same binder?
Answer: -0.298

Question: What about the “glycan array binding signal (z-score)” value [14] of the same binder?
Answer: -0.2

Question: What about the “glycan array binding signal (z-score)” value [15] of the same binder?
Answer: -0.323

Question: And the “glycan array binding signal (z-score)” value (Gal3S4S(b1-4)GlcNAc)?
Answer: -0.363

Question: What about the “glycan array binding signal (z-score)” value (Gal3S6S(b1-4)GlcNAc) of the same binder?
Answer: -0.3

Question: And the “glycan array binding signal (z-score)” value (Gal3S6S(b1-4)GlcNAc6S)?
Answer: -0.344

Question: What about the “glycan array binding signal (z-score)” value (Gal4S(b1-4)GlcNAc) of the same binder?
Answer: -0.357

Question: And the “glycan array binding signal (z-score)” value (Gal4S6S(b1-4)GlcNAc)?
Answer: -0.343

Question: And the “glycan array binding signal (z-score)” value (Gal6P(b1-4)GlcNAc)?
Answer: -0.329

Question: And the “glycan array binding signal (z-score)” value (Gal6S(b1-3)GlcNAc)?
Answer: -0.351

Question: What about the “glycan array binding signal (z-score)” value (Gal6S(b1-3)GlcNAc6S) of the same binder?
Answer: -0.433

Question: What about the “glycan array binding signal (z-score)” value (Gal6S(b1-4)Glc) of the same binder?
Answer: -0.407

Question: And the “glycan array binding signal (z-score)” value (Gal6S(b1-4)Glc6S)?
Answer: -0.357

Question: And the “glycan array binding signal (z-score)” value (Gal6S(b1-4)GlcNAc)?
Answer: -0.429

Question: And the “glycan array binding signal (z-score)” value (Gal6S(b1-4)GlcNAc6S)?
Answer: -0.383

Question: And the “glycan array binding signal (z-score)” value (GalNAc(a1-3)Gal)?
Answer: 2.28

Question: And the “glycan array binding signal (z-score)” value (GalNAc(a1-3)GalNAc)?
Answer: -0.076

Question: What about the “glycan array binding signal (z-score)” value [16] of the same binder?
Answer: -0.289

Question: And the “glycan array binding signal (z-score)” value [17]?
Answer: -0.172

Question: And the “glycan array binding signal (z-score)” value (GalNAc(b1-3)Gal)?
Answer: -0.191

Question: And the “glycan array binding signal (z-score)” value [18]?
Answer: -0.214

Question: What about the “glycan array binding signal (z-score)” value [19] of the same binder?
Answer: 0.074

Question: What about the “glycan array binding signal (z-score)” value [20] of the same binder?
Answer: -0.079

Question: What about the “glycan array binding signal (z-score)” value (GalNAc(b1-3)GalNAc) of the same binder?
Answer: -0.198

Question: What about the “glycan array binding signal (z-score)” value (GalNAc(b1-3)GlcNAc) of the same binder?
Answer: 0.747

Question: What about the “glycan array binding signal (z-score)” value (GalNAc(b1-4)Gal(b1-4)Glc) of the same binder?
Answer: -0.312

From the supplement of paper PMC8728848
